{"source": "the supplement of paper PMC8728848", "test_in_all_cases": "glycan array binding signal (z-score within array); higher = stronger binding", "conditions_in_all_cases": "glycan notation: IUPAC condensed, linker removed", "key": {"[1]": {"molecular_target": "Gal(b1-3)GlcNAc(b1-2)Man(a1-3)[Gal(b1-3)GlcNAc(b1-2)Man(a1-6)]Man(b1-4)GlcNAc(b1-4)GlcNAc", "procedure,_shortened": "(§1)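 Glycan array data came from 3228 arrays in the Consortium for Functional Glycomics database, and only arrays with an available protein sequence were kept. Glycan names were put into IUPAC-condensed notation, and columns mapping to the same glycan were averaged. The binding signal is a within-array Z-score, averaged across arrays of one protein sequence run at different concentrations or buffers and across linkers. A negative Z-score can be read as non-binding.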"}, "[2]": {"molecular_target": "Gal(b1-3)GlcNAc(b1-2)Man(a1-3)[Gal(b1-3)GlcNAc(b1-2)Man(a1-6)]Man(b1-4)GlcNAc(b1-4)[Fuc(a1-6)]GlcNAc", "procedure,_shortened": "as §1"}, "[3]": {"molecular_target": "Gal(b1-3)GlcNAc(b1-2)Man(a1-3)[GlcNAc(b1-4)][Gal(b1-3)GlcNAc(b1-2)Man(a1-6)]Man(b1-4)GlcNAc(b1-4)GlcNAc", "procedure,_shortened": "as §1"}, "[4]": {"molecular_target": "Gal(b1-3)GlcNAc(b1-2)[Gal(b1-3)GlcNAc(b1-6)]Man(a1-6)[Gal(b1-3)GlcNAc(b1-2)Man(a1-3)]Man(b1-4)GlcNAc(b1-4)GlcNAc", "procedure,_shortened": "as §1"}, "[5]": {"molecular_target": "Gal(b1-3)GlcNAc(b1-3)Gal(b1-3)GlcNAc", "procedure,_shortened": "as §1"}, "[6]": {"molecular_target": "Gal(b1-3)GlcNAc(b1-3)Gal(b1-4)Glc", "procedure,_shortened": "as §1"}, "[7]": {"molecular_target": "Gal(b1-3)GlcNAc(b1-3)Gal(b1-4)GlcNAc", "procedure,_shortened": "as §1"}, "[8]": {"molecular_target": "Gal(b1-3)GlcNAc(b1-3)Gal(b1-4)GlcNAc(b1-2)Man(a1-3)[Gal(b1-3)GlcNAc(b1-3)Gal(b1-4)GlcNAc(b1-2)Man(a1-6)]Man(b1-4)GlcNAc(b1-4)GlcNAc", "procedure,_shortened": "as §1"}, "[9]": {"molecular_target": "Gal(b1-3)GlcNAc(b1-3)Gal(b1-4)GlcNAc(b1-2)[Gal(b1-3)GlcNAc(b1-3)Gal(b1-4)GlcNAc(b1-6)]Man(a1-6)[Gal(b1-3)GlcNAc(b1-3)Gal(b1-4)GlcNAc(b1-2)Man(a1-3)]Man(b1-4)GlcNAc(b1-4)[Fuc(a1-6)]GlcNAc", "procedure,_shortened": "as §1"}, "[10]": {"molecular_target": "Gal(b1-3)GlcNAc(b1-3)Gal(b1-4)GlcNAc(b1-3)Gal(b1-4)GlcNAc(b1-2)[Gal(b1-3)GlcNAc(b1-3)Gal(b1-4)GlcNAc(b1-3)Gal(b1-4)GlcNAc(b1-6)]Man(a1-6)[Gal(b1-3)GlcNAc(b1-3)Gal(b1-4)GlcNAc(b1-3)Gal(b1-4)GlcNAc(b1-2)Man(a1-3)]Man(b1-4)GlcNAc(b1-4)[Fuc(a1-6)]GlcNAc", "procedure,_shortened": "as §1"}, "[11]": {"molecular_target": "Gal(b1-3)GlcNAc(b1-3)Gal(b1-4)GlcNAc(b1-6)[Gal(b1-3)GlcNAc(b1-3)]Gal(b1-4)Glc", "procedure,_shortened": "as §1"}, "[12]": {"molecular_target": "Gal(b1-3)GlcNAc(b1-3)Gal(b1-4)[Fuc(a1-3)]GlcNAc", "procedure,_shortened": "as §1"}, "[13]": {"molecular_target": "Gal(b1-3)GlcNAc(b1-3)Gal(b1-4)[Fuc(a1-3)]GlcNAc(b1-6)[Gal(b1-3)GlcNAc(b1-3)]Gal(b1-4)Glc", "procedure,_shortened": "as §1"}, "[14]": {"molecular_target": "Gal(b1-3)GlcNAc(b1-3)GalNAc", "procedure,_shortened": "as §1"}, "[15]": {"molecular_target": "Gal(b1-3)GlcNAc(b1-6)Gal(b1-4)GlcNAc", "procedure,_shortened": "as §1"}, "[16]": {"molecular_target": "Gal(b1-3)GlcNAc(b1-6)GalNAc", "procedure,_shortened": "as §1"}, "[17]": {"molecular_target": "Gal(b1-3)GlcNAc(b1-6)[Gal(b1-3)]GalNAc", "procedure,_shortened": "as §1"}, "[18]": {"molecular_target": "Gal(b1-3)GlcNAc6S", "procedure,_shortened": "as §1"}, "[19]": {"molecular_target": "Gal(b1-3)[Fuc(a1-4)]GlcNAc", "procedure,_shortened": "as §1"}, "[20]": {"molecular_target": "Gal(b1-3)[Fuc(a1-4)]GlcNAc(b1-2)Man", "procedure,_shortened": "as §1"}, "[21]": {"molecular_target": "Gal(b1-3)[Fuc(a1-4)]GlcNAc(b1-2)Man(a1-3)[Gal(b1-3)[Fuc(a1-4)]GlcNAc(b1-2)Man(a1-6)]Man(b1-4)GlcNAc(b1-4)[Fuc(a1-6)]GlcNAc", "procedure,_shortened": "as §1"}, "[22]": {"molecular_target": "Gal(b1-3)[Fuc(a1-4)]GlcNAc(b1-3)Gal(b1-3)[Fuc(a1-4)]GlcNAc", "procedure,_shortened": "as §1"}, "[23]": {"molecular_target": "Gal(b1-3)[Fuc(a1-4)]GlcNAc(b1-3)Gal(b1-4)[Fuc(a1-3)]GlcNAc", "procedure,_shortened": "as §1"}, "[24]": {"molecular_target": "Gal(b1-3)[Fuc(a1-4)]GlcNAc(b1-6)GalNAc", "procedure,_shortened": "as §1"}, "[25]": {"molecular_target": "Gal(b1-3)[GlcNAc(b1-6)]GalNAc", "procedure,_shortened": "as §1"}, "[26]": {"molecular_target": "Gal(b1-3)[Neu5Ac(a2-6)]GalNAc", "procedure,_shortened": "as §1"}, "[27]": {"molecular_target": "Gal(b1-3)[Neu5Ac(a2-6)]GlcNAc(b1-4)Gal(b1-4)Glc", "procedure,_shortened": "as §1"}, "[28]": {"molecular_target": "Gal(b1-3)[Neu5Ac(b2-6)]GalNAc", "procedure,_shortened": "as §1"}, "[29]": {"molecular_target": "Gal(b1-4)Gal", "procedure,_shortened": "as §1"}, "[30]": {"molecular_target": "Gal(b1-4)GalNAc(a1-3)[Fuc(a1-2)]Gal(b1-4)GlcNAc", "procedure,_shortened": "as §1"}, "[31]": {"molecular_target": "Gal(b1-4)GalNAc(b1-3)[Fuc(a1-2)]Gal(b1-4)GlcNAc", "procedure,_shortened": "as §1"}, "[32]": {"molecular_target": "Gal(b1-4)Glc", "procedure,_shortened": "as §1"}, "[33]": {"molecular_target": "Gal(b1-4)Glc6S", "procedure,_shortened": "as §1"}, "[34]": {"molecular_target": "Gal(b1-4)GlcNAc", "procedure,_shortened": "as §1"}, "[35]": {"molecular_target": "Gal(b1-4)GlcNAc(a1-6)Gal(b1-4)GlcNAc", "procedure,_shortened": "as §1"}, "[36]": {"molecular_target": "Gal(b1-4)GlcNAc(b1-2)Man", "procedure,_shortened": "as §1"}, "[37]": {"molecular_target": "Gal(b1-4)GlcNAc(b1-2)Man(a1-3)Man(b1-4)GlcNAc(b1-4)GlcNAc", "procedure,_shortened": "as §1"}}, "note": "This is one part of the list."}
{"binder": "PVL (Psathyrella velutina), Q309D1_9AGAR (protein) MSVVVISQALPVPTRIPGVADLVGFGNGGVYIIRNSLLIQVVKVINNFGYDAGGWRVEKHVRLLADTTGDNQPDVVGFGENGVWISTNNGNNTFVDPPKMVLANFAYAAGGWRVEKHIRFMADLRKTGRADIVGFGDGGIYISRNNGGGQFAPAQLALNNFGYAQGWRLDRHLRFLADVTGDGLLDVVGFGENQVYIARNSGNGTFQPAQAVVNNFCIGAGGWTISAHPRVVADLTGDRKADILGFGVAGVYTSLNNGNGTFGAVNLVLKDFGVNSGWRVEKHVRCVSSLTNKKVGDIIGFGDAGVYVALNNGNGTFGPVKRVIDNFGYNQGWRVDKHPRFVVDLTGDGCADIVGFGENSVWACMNKGDGTFGPIMKLIDDMTVSKGWTLQKTVRYAANLYL", "values": [{"measurement": "glycan array binding signal (z-score)", "setting": "[1]", "value": -0.274}, {"measurement": "glycan array binding signal (z-score)", "setting": "[2]", "value": -0.364}, {"measurement": "glycan array binding signal (z-score)", "setting": "[3]", "value": -0.341}, {"measurement": "glycan array binding signal (z-score)", "setting": "[4]", "value": -0.349}, {"measurement": "glycan array binding signal (z-score)", "setting": "[5]", "value": -0.337}, {"measurement": "glycan array binding signal (z-score)", "setting": "[6]", "value": -0.359}, {"measurement": "glycan array binding signal (z-score)", "setting": "[7]", "value": -0.364}, {"measurement": "glycan array binding signal (z-score)", "setting": "[8]", "value": -0.234}, {"measurement": "glycan array binding signal (z-score)", "setting": "[9]", "value": -0.341}, {"measurement": "glycan array binding signal (z-score)", "setting": "[10]", "value": -0.091}, {"measurement": "glycan array binding signal (z-score)", "setting": "[11]", "value": -0.31}, {"measurement": "glycan array binding signal (z-score)", "setting": "[12]", "value": -0.369}, {"measurement": "glycan array binding signal (z-score)", "setting": "[13]", "value": -0.367}, {"measurement": "glycan array binding signal (z-score)", "setting": "[14]", "value": -0.36}, {"measurement": "glycan array binding signal (z-score)", "setting": "[15]", "value": -0.369}, {"measurement": "glycan array binding signal (z-score)", "setting": "[16]", "value": -0.364}, {"measurement": "glycan array binding signal (z-score)", "setting": "[17]", "value": -0.356}, {"measurement": "glycan array binding signal (z-score)", "setting": "[18]", "value": -0.361}, {"measurement": "glycan array binding signal (z-score)", "setting": "[19]", "value": -0.367}, {"measurement": "glycan array binding signal (z-score)", "setting": "[20]", "value": -0.306}, {"measurement": "glycan array binding signal (z-score)", "setting": "[21]", "value": -0.343}, {"measurement": "glycan array binding signal (z-score)", "setting": "[22]", "value": -0.367}, {"measurement": "glycan array binding signal (z-score)", "setting": "[23]", "value": -0.373}, {"measurement": "glycan array binding signal (z-score)", "setting": "[24]", "value": -0.361}, {"measurement": "glycan array binding signal (z-score)", "setting": "[25]", "value": -0.152}, {"measurement": "glycan array binding signal (z-score)", "setting": "[26]", "value": -0.361}, {"measurement": "glycan array binding signal (z-score)", "setting": "[27]", "value": -0.26}, {"measurement": "glycan array binding signal (z-score)", "setting": "[28]", "value": -0.366}, {"measurement": "glycan array binding signal (z-score)", "setting": "[29]", "value": -0.367}, {"measurement": "glycan array binding signal (z-score)", "setting": "[30]", "value": -0.373}, {"measurement": "glycan array binding signal (z-score)", "setting": "[31]", "value": -0.37}, {"measurement": "glycan array binding signal (z-score)", "setting": "[32]", "value": -0.299}, {"measurement": "glycan array binding signal (z-score)", "setting": "[33]", "value": -0.335}, {"measurement": "glycan array binding signal (z-score)", "setting": "[34]", "value": -0.292}, {"measurement": "glycan array binding signal (z-score)", "setting": "[35]", "value": -0.352}, {"measurement": "glycan array binding signal (z-score)", "setting": "[36]", "value": -0.344}, {"measurement": "glycan array binding signal (z-score)", "setting": "[37]", "value": -0.367}]}
